# Assay results: PubChem BioAssay AID686970 (National Center for Advancing Translational Sciences (NCATS), 2013)
# In all, about 360,000 compounds went through this assay and about 6,000 (1.7%) were called active. Inconclusive results, whose numbers are uncertain, are shown with a selection of clear calls. Calls come from the whole dose curve; as a rule, active = well fitted cell-killing curve with a large enough effect; inconclusive = small, poorly fitted or top-dose-only effect, or effect the other way; inactive = flat fitted curve, though single readings scatter. No potency is given beside an inconclusive call; the fits are too rough.
# Assay: qHTS for induction of synthetic lethality in tumor cells producing 2HG: qHTS for the HT-1080-NT fibrosarcoma cell line;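 note: NT is the 2HG producing partner of a matched IDH1 knockdown line; nearly all actives have a fitted effect of over 55% in size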;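 for activity, negative = less viability: 0% = DMSO-treated cells and -100% = media-only wells without cells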
# Details: HT-1080-NT fibrosarcoma viability, CellTiter-Glo ATP luminescence, 48 h; activity, negative = less viability: at 46.1 µM (top of the series) unless noted
# How it was run: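 Toxicity toward the 2HG-producing NT line was scored as %Activity, normalised to DMSO and no-cell wells, from CellTiter-Glo luminescence after 48 hours' treatment.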
# Potency is the fitted concentration of half-maximal effect; tags give direction and shape of the fitted curve.
Structure (SMILES),Potency,"activity, negative = less viability"
NC(=S)NN=C1CSSC1,"inconclusive [cytotoxic, partial curve]",
COc1ccc2ccccc2c1C1NC(=O)NC(C)=C1[N+](=O)[O-] (configuration not stated),inactive,
COc1cccc(/C=N\Nc2nncc(-c3ccccc3)n2)c1,"inconclusive [rising, partial curve]",
Cc1csc(NC(=O)c2cc3c(s2)CCCCC3)n1,"inconclusive [cytotoxic, single point]",
COc1ccc(-n2c(SCC(=O)NCCCN3CCCC3=O)nnc2C(C)N2CCCCC2)cc1 (configuration not stated),inactive,
CCCCN(CCCC)S(=O)(=O)c1ccc2[nH]c(=O)[nH]c2c1,"inconclusive [cytotoxic, partial curve]",
CCN(C(=O)c1cc2cc3ccc(C)cc3nc2o1)c1ccc(OC)cc1,,inconclusive: 18.1%
CCc1ccc(OCC(=O)NC(C)C)cc1,inactive,
COc1ccc2c3c([nH]c2c1)[C@H]1C[C@H]2[C@H](C[C@@H](O)[C@H](OC)[C@H]2C(=O)O)CN1CC3,"inconclusive [cytotoxic, full curve, poor fit]",
CN(C(=O)c1ccc(NC(=O)Cc2ccc(NC(=O)C3CCN(C(=O)C4CC4)CC3)cc2)cc1)C1CCCC1,,inconclusive: -8.12% [cytotoxic]
O=C(NC1CCCCC1)C(c1ccccn1)N(C(=O)Cc1cccs1)c1ccc(Cl)cc1 (configuration not stated),"inconclusive [cytotoxic, single point]",
NCCCCCC(=O)Nc1ccncc1,"inconclusive [rising, single point]",
Fc1ccc(-c2nc3nc4ccccc4nc3n2Cc2ccco2)cc1,inactive,
Cc1ccc(Cc2c(-c3ccco3)nc3c4ccccc4ccn23)cc1,active: 23.1 µM,
Cc1ccc(C(=O)NCCCN2CCOCC2)c(Cl)c1,inactive,
CC(=O)c1c(CC(=O)O)[nH]n(-c2nc3ccccc3s2)c1=O,active: 10 µM,
CCCC(=O)NC(Nc1cc(C(F)(F)F)ccc1Cl)C(Cl)(Cl)Cl (configuration not stated),"inconclusive [cytotoxic, single point]",
CSc1ccc(S(=O)(=O)NCC(=O)OC2CCOC2=O)cc1[N+](=O)[O-] (configuration not stated),inactive,
C=CCC(=O)NC1CCCc2c1cnn2-c1cc(F)cc(F)c1 (configuration not stated),inactive,
COc1ccc(-c2cn3cc(C(F)(F)F)cc(Cl)c3n2)cc1,"inconclusive [cytotoxic, partial curve]",
CCOC(=O)C1CCN(C(=O)Cn2c(=O)c3cccn3c3cccnc32)CC1,inactive,
COc1ccc(C2CC(c3cccc(C(F)(F)F)c3)=NN2c2ccc(S(N)(=O)=O)cc2)cc1 (configuration not stated),"inconclusive [cytotoxic, single point]",
